Target: T1, human LAG-3 (human, UniProt P18627 23-525)
T1 construct: whole, on cells; also called LAG-3 antigen
T1 sequence (looked up): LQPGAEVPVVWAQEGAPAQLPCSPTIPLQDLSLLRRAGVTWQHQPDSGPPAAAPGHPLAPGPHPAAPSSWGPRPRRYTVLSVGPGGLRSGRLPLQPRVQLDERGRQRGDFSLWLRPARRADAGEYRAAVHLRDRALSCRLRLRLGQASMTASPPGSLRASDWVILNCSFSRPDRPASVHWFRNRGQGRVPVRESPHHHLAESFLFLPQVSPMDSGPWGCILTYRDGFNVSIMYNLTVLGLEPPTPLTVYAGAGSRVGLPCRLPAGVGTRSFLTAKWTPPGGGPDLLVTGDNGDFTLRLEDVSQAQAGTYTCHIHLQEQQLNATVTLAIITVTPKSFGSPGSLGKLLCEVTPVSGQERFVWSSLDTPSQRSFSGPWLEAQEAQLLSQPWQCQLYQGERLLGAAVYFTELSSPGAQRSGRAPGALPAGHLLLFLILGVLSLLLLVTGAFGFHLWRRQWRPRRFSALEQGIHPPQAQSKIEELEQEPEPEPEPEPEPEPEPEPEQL
Test: flow cytometry on CHO-K1 cells expressing human LAG-3
Protocol: For the constructed series of bispecific antibodies, the affinity of these samples with antigens was measured by using a flow cytometer. […] Then, an antibody-antigen binding curve was generated based on the geometric mean, raw data of four parameters was plotted by using the […] Prism V6.02 software, and a best fitted value program was compiled to analyze EC₅₀.

B1: Fc fusion protein sdAb-LAG3-IgG4PE (Fc fusion)
chain: EVQLVESGGGLVQPGGSLRLSCAASGYTVSSYCMGWFRQAPGKGREGVSAIDSDGSVSYADSVKGRFTISKDNSKNTLYLQMNSLRAEDTAVYFCAADLCWVDQDQGEYNTWGQGTLVTVSS[letters of human IgG4 Fc with changes omitted]
notes: also called H7; sdAb control
Q: Does B1 bind?
A: binds

Source: patent US20220267436A1 (NANJING GENSCRIPT BIOTECH, published 2022)
